Laboratory results taken from patent publication US8067379B2, “Sulfur compounds as inhibitors of hepatitis C virus NS3 serine protease” (Schering Corporation, priority 2004, dated 2011).

target: Recombinant heterodimeric HCV NS3/NS4A protease (strain 1a) (Hepatitis C virus genotype 1a, UniProt P27958); assay: Spectrophotometric assay for HCV serine protease inhibitory activity (chromogenic ester substrates); assay type: biochemical; conditions: Table 3A; cells that print a number instead of a class symbol; read-out: Ki* Range

SMILES	Ki [µM]
C=CCNC(=O)C(=O)[C@H](CC1CC1)NC(=O)[C@@H]1[C@@H]2[C@H](CN1C(=O)[C@@H](NC(=O)NC1(CS(=O)(=O)C(C)(C)C)CCCCC1)C(C)(C)C)C2(C)C [Compound 695]	0.005
C=CCNC(=O)C(=O)[C@H](CCC1CC1)NC(=O)[C@@H]1[C@@H]2[C@H](CN1C(=O)[C@@H](NC(=O)NC1(CS(=O)(=O)C(C)(C)C)CCCCC1)C(C)(C)C)C2(C)C [Compound 701]	0.006

same assay, conditions: Table 3A; class symbols; read-out: Ki* Range

SMILES	Ki [µM]
CCCNC(=O)C(=O)C(CC1CCC1)NC(=O)[C@@H]1[C@@H]2[C@H](CN1C(=O)[C@@H](NC(=O)NC1(C3CCCS3(=O)=O)CCCCC1)C(C)(C)C)C2(C)C (stereo partly drawn) [Compound 664]	< 0.075
CC(C)(C)[C@H](NC(=O)NC1(CS(=O)(=O)C(C)(C)C)CCCCC1)C(=O)N1CC2(C[C@H]1C(=O)NC(CC1CC1)C(=O)C(=O)NC1CC1)SCCS2 (stereo partly drawn) [Compound 665]	0.075 to 0.25
C=CCNC(=O)C(=O)[C@H](CC1CC1)NC(=O)[C@@H]1[C@@H]2[C@H](CN1C(=O)[C@@H](NC(=O)NC1(C3CCCS3(=O)=O)CCCCC1)C(C)(C)C)C2(C)C (stereo partly drawn) [Compound 666]	< 0.075
C=CCNC(=O)C(=O)[C@H](CC1CC1)NC(=O)[C@@H]1[C@@H]2[C@H](CN1C(=O)[C@@H](NC(=O)NC1(CS(=O)(=O)C(C)(C)C)CC3CCC(C3)C1)C(C)(C)C)C2(C)C (stereo partly drawn) [Compound 667]	< 0.075
CCCC(NC(=O)[C@@H]1[C@@H]2[C@H](CN1C(=O)[C@@H](NC(=O)NC1(CS(=O)(=O)C(C)(C)COC)CCCCC1)C1(C)CCCCC1)C2(C)C)C(=O)C(=O)NC1CC1 (stereo partly drawn) [Compound 668]	< 0.075
C=CCNC(=O)C(=O)C(CCCC)NC(=O)[C@@H]1C[C@@H](C#N)CN1C(=O)[C@@H](NC(=O)NC1(CS(=O)(=O)C(C)(C)C)CCCCC1)C(C)(C)C (stereo partly drawn) [Compound 670]	> 0.25
C=CCNC(=O)C(=O)C(CC1CCC1)NC(=O)[C@@H]1[C@@H]2[C@H](CN1C(=O)[C@@H](NC(=O)NC1(C3CCCS3(=O)=O)CCCCC1)C1(C)CCCCC1)C2(C)C (stereo partly drawn) [Compound 672]	< 0.075
C=CCNC(=O)C(=O)C(CC1CC1)NC(=O)[C@@H]1C[C@@H](C#N)CN1C(=O)[C@@H](NC(=O)NC1(CS(=O)(=O)C(C)(C)C)CCCCC1)C(C)(C)C (stereo partly drawn) [Compound 673]	> 0.25
C=CCNC(=O)C(=O)[C@H](CCC)NC(=O)[C@@H]1[C@@H]2[C@H](CN1C(=O)[C@@H](NC(=O)NC1(C3CCCS3(=O)=O)CCCCC1)C1CCCCC1)C2(C)C (stereo partly drawn) [Compound 674]	< 0.075
CCCC(NC(=O)[C@@H]1[C@@H]2[C@H](CN1C(=O)[C@@H](NC(=O)NC1(CS(=O)(=O)C(C)(C)COC3CCCCO3)CCCCC1)C1(C)CCCCC1)C2(C)C)C(=O)C(=O)NC1CC1 (stereo partly drawn) [Compound 675]	< 0.075
CC1([C@H](NC(=O)NC2(CS(=O)(=O)C(C)(C)COC3CCCCO3)CCCCC2)C(=O)N2C[C@H]3[C@@H]([C@H]2C(=O)NC(CCC2CC2)C(=O)C(=O)NC2CC2)C3(C)C)CCCCC1 (stereo partly drawn) [Compound 676]	< 0.075
CCCC(NC(=O)[C@@H]1[C@@H]2[C@H](CN1C(=O)[C@@H](NC(=O)NC1(CS(=O)(=O)C(C)(C)CO)CCCCC1)C1(C)CCCCC1)C2(C)C)C(=O)C(=O)NC1CC1 (stereo partly drawn) [Compound 678]	< 0.075
CC1([C@H](NC(=O)NC2(CS(=O)(=O)C(C)(C)CO)CCCCC2)C(=O)N2C[C@H]3[C@@H]([C@H]2C(=O)NC(CCC2CC2)C(=O)C(=O)NC2CC2)C3(C)C)CCCCC1 (stereo partly drawn) [Compound 679]	< 0.075
C=CCNC(=O)C(=O)C(CCC1CC1)NC(=O)[C@@H]1CC2(CN1C(=O)[C@@H](NC(=O)NC1(CS(=O)(=O)C(C)(C)C)CCCCC1)C(C)(C)C)SCCS2 (stereo partly drawn) [Compound 680]	< 0.075
CC(C)(C)[C@H](NC(=O)NC1(C2CCCS2(=O)=O)CCCCC1)C(=O)N1C[C@H]2[C@@H]([C@H]1C(=O)NC(CCC1CC1)C(=O)C(=O)NC1CC1)C2(C)C (stereo partly drawn) [Compound 681]	< 0.075
C=CCNC(=O)C(=O)C(CC1CC1)NC(=O)[C@@H]1C[C@@H](CNC(C)=O)CN1C(=O)[C@@H](NC(=O)NC1(CS(=O)(=O)C(C)(C)C)CCCCC1)C(C)(C)C (stereo partly drawn) [Compound 682]	> 0.25

SMILES	Ki [µM]
C=CCNC(=O)C(=O)C(CCCC)NC(=O)[C@@H]1C[C@@H](CNC(C)=O)CN1C(=O)[C@@H](NC(=O)NC1(CS(=O)(=O)C(C)(C)C)CCCCC1)C(C)(C)C (stereo partly drawn) [Compound 683]	> 0.25
CC(=O)NC[C@@H]1C[C@@H](C(=O)NC(CC2CC2)C(=O)C(=O)NC2CC2)N(C(=O)[C@@H](NC(=O)NC2(CS(=O)(=O)C(C)(C)C)CCCCC2)C(C)(C)C)C1 (stereo partly drawn) [Compound 684]	> 0.25
C#CCCC(NC(=O)[C@@H]1[C@@H]2[C@H](CN1C(=O)[C@@H](NC(=O)NC1(CS(=O)(=O)C(C)(C)CO)CCCCC1)C1(C)CCCCC1)C2(C)C)C(=O)C(=O)NC1CC1 (stereo partly drawn) [Compound 685]	< 0.075
CCCC(NC(=O)[C@@H]1[C@@H]2[C@H](CN1C(=O)[C@@H](NC(=O)NC1(CS(=O)(=O)C(C)(C)C=O)CCCCC1)C1(C)CCCCC1)C2(C)C)C(=O)C(=O)NC1CC1 (stereo partly drawn) [Compound 686]	< 0.075
CCC[C@H](NC(=O)[C@@H]1[C@@H]2[C@H](CN1C(=O)[C@@H](NC(=O)NC1(CS(=O)(=O)C(C)(C)C)CCCCC1)C1(C)CCCCC1)C2(C)C)C(=O)C(=O)NC1CC1 [Compound 687]	< 0.075
CCC[C@H](NC(=O)[C@@H]1[C@@H]2[C@H](CN1C(=O)[C@@H](NC(=O)NC1(C3CCCS3(=O)=O)CCCCC1)C(C)(C)C)C2(C)C)C(=O)C(=O)NC1CC1 (stereo partly drawn) [Compound 688]	< 0.075
C=CCNC(=O)C(=O)[C@H](CC1CC1)NC(=O)[C@@H]1[C@@H]2[C@H](CN1C(=O)[C@@H](NC(=O)NC1(C3CCCS3(=O)=O)CCCCC1)C1(C)CCCCC1)C2(C)C (stereo partly drawn) [Compound 690]	< 0.075
CCCC(NC(=O)[C@@H]1[C@@H]2[C@H](CN1C(=O)[C@@H](NC(=O)NC1(CS(=O)(=O)C(C)(C)C)CCCCC1)C1(C)CCCCC1)C2(C)C)C(=O)C(=O)NCc1ccccc1 (stereo partly drawn) [Compound 691]	< 0.075
CC1([C@H](NC(=O)NC2(CS(=O)(=O)C(C)(C)C)CCCCC2)C(=O)N2C[C@H]3[C@@H]([C@H]2C(=O)NC(CC2CC2)C(=O)C(=O)NCc2ccccc2)C3(C)C)CCCCC1 (stereo partly drawn) [Compound 693]	< 0.075
CCCCC(NC(=O)[C@@H]1[C@@H]2[C@H](CN1C(=O)[C@@H](NC(=O)NC1(CS(=O)(=O)C(C)(C)C)CCCCC1)C1(C)CCCCC1)C2(C)C)C(=O)C(=O)NCc1ccccc1 (stereo partly drawn) [Compound 694]	< 0.075
CCC[C@H](NC(=O)[C@@H]1[C@H]2OC(C)(C)O[C@H]2CN1C(=O)[C@@H](NC(=O)NC1(CS(=O)(=O)C(C)(C)C)CCCCC1)C(C)(C)C)C(=O)C(=O)NC1CC1 [Compound 696]	< 0.075
C=CCNC(=O)C(=O)[C@H](CC1CC1)NC(=O)[C@@H]1[C@H]2OC(C)(C)O[C@H]2CN1C(=O)[C@@H](NC(=O)NC1(CS(=O)(=O)C(C)(C)C)CCCCC1)C(C)(C)C [Compound 697]	< 0.075
C=CCNC(=O)C(=O)[C@@H](CCCC)NC(=O)[C@@H]1[C@@H]2[C@H](CN1C(=O)[C@@H](NC(=O)NC1(CS(=O)(=O)C(C)(C)C)CCCCC1)C(C)(C)C)C2(C)C [Compound 698]	0.075 to 0.25
C=CCNC(=O)C(=O)[C@H](CCCC)NC(=O)[C@@H]1[C@@H]2[C@H](CN1C(=O)[C@@H](NC(=O)NC1(CS(=O)(=O)C(C)(C)C)CCCCC1)C(C)(C)C)C2(C)C [Compound 699]	< 0.075
C=CCNC(=O)C(=O)[C@@H](CCC1CC1)NC(=O)[C@@H]1[C@@H]2[C@H](CN1C(=O)[C@@H](NC(=O)NC1(CS(=O)(=O)C(C)(C)C)CCCCC1)C(C)(C)C)C2(C)C [Compound 700]	< 0.075
